According to US20260234269A1 (TRUEBINDING, published 2026):

Biological target: T1, HA-tagged human TIM-3 expressed in 293T cells (human, UniProt Q8TDQ0 22-301)
T1 construct: In cell lysate; also called HA-tagged hTIM-3; hTIM-3; not shown: HA tag
T1 sequence: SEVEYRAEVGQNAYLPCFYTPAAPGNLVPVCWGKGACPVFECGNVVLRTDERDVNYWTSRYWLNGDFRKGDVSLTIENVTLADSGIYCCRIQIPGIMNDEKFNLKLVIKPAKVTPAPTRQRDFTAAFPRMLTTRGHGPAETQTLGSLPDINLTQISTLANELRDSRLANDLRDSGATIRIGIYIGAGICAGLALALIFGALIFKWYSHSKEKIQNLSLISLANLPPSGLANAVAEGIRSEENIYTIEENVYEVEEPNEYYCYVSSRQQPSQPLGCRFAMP
Experiment: co-IP, anti-Flag beads, co-transfected 293T lysate, anti-HA blot

- binding result: binds
B1: Flag-tagged human Gal3 expressed in 293T cells (ligand)
chain: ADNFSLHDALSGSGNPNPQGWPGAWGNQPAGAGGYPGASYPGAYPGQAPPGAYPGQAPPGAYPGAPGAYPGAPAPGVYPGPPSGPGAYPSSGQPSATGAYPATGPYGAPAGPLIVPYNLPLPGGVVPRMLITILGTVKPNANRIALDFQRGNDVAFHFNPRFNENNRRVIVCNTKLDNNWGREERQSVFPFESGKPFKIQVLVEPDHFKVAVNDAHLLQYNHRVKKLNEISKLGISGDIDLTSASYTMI
notes: In cell lysates (co-IP, pull-down); also called Flag-tagged Gal3; Flag-human Gal3; not shown: Flag tag
